Test results reported in patent US9150634B2, “Epitopes of the human PDGF receptor able to bind human auto-antibodies, antibodies and uses thereof” (priority 2010, dated 2015).

Experiments:
[1] = tested on: normal human fibroblasts; assay: ERK phosphorylation (p-ERK immunoblot) in normal human fibroblasts; format: cell-based; details: 10 micrograms/ml, 15 minutes incubation
Excerpt: (§1) FIG. 5 Characterization of recombinant human monoclonal auto-antibodies (rHumaab). IgG were affinity-purified from serum-free supernatants of CHO cells stably transfected with each of the four rHumaab constructs and used (10 micrograms/ml) in four independent assays. Each result is representative of three experiments performed under the same conditions. (a) Vk13B8, Vk16F4 and Vlambda16F4, but not Vlambda13B8 rHumaab, immunoprecipitated PDGFR alpha from normal human fibroblast extracts. A mouse monoclonal anti-PDGFR alpha antibody was used as positive control. Immunoprecipitated PDGFR alpha was visualized by immunoblotting with rabbit anti-PDGFR alpha antibody-HRP. (b-c) Vk16F4 and Vlambda16F4, but not Vk13B8 and Vlambda13B8 rHumaab, induced (b) ROS production and (c) increased ERK phosphorylation (p-ERK) in normal human fibroblasts after 15 minutes incubation. […] Intracellular ROS production was measured by DCFH-DA fluorescence. […] Type I A1 and A2 collagen gene expression was measured by quantitative real-time PCR in RNA extracted from fibroblasts at baseline and after stimulation with the indicated reagents. […] Mouse collagen gene expression was measured by quantitative real-time PCR in RNA extracted from F alpha and F−/− fibroblasts at baseline and after 1 hour stimulation with Vk16F4 rHumaab or human PDGF-BB. […]

[2] = biological target: T1, PDGFR alpha (Homo sapiens, UniProt P16234); assay: competitive binding on optical biosensor; parameters: cDNA encoding aminoacids 1-834 of human PDGFR alpha; made in house
Experimental: To draw a map of the PDGFR alpha epitopes recognized by the rHumaab, competitive binding experiments were performed on the optical biosensor platform, where the surface of immobilized HIS-tagged PDGFR alpha was saturated with PDGF-BB prior to the addition of each rHumaab.
Binding assays were performed on a IAsys plus biosensor. The carboxylate surface was equilibrated with PBS buffer, and activated by addition of an equimolar mixture of N-hydroxysuccinimide and N-ethyl-N-(dimethylaminopropyl) carbodiimide hydrochloride following the standard procedure (Davies, R J et al. Academic Press: San Diego, 1994).
Next, His-tagged PDGFR alpha (200 micrograms/mL) was incubated over the surface for 20 min, and free carboxylic sites on the sensor surface were deactivated by injection of 1M ethanolamine, pH 8.5. Finally, the surface was re-equilibrated with PBS. rHumaab and PDGF-BB were added at different concentrations, and association kinetics were followed up to equilibrium, whereas dissociation steps and surface regeneration were performed by addition of fresh buffer, each time assessing the baseline recovery prior to any new addition of ligand. Kinetic and equilibrium parameters were derived from global fit of raw data both to mono- and bi-exponential models (Cuccioloni M et al. J Lipid Res 2011; 52 (5): 897-907).

[3] = biological target: T1, PDGFR alpha; assay: optical biosensor binding to immobilized His-tagged PDGFR alpha; parameters: cDNA encoding aminoacids 1-834 of human PDGFR alpha; made in house
Experimental: A detailed characterization of rHumaab interaction with human PDGFR alpha was performed on an optical biosensor, using as a molecular bait a homemade truncated conformer of this receptor containing the complete extracellular and transmembrane regions joined to a poly-histidine tail (HIS tag) replacing part of the intracellular domain, and serving both as an anchor to the biosensor surface and as a spacer. Preservation of proper folding of the immobilized receptor into a naïve-like conformation was verified by monitoring the interaction with its natural binding partner (PDGF-BB) and with two mouse monoclonal antibodies specific for conformational PDGFR alpha epitopes (FIG. 6a). Using this approach, both kinetics and equilibrium parameters of the interaction between PDGF-BB, each rHumaab and PDGFR alpha were determined. […]
cDNA encoding aminoacids 1-834 of human PDGFR alpha was inserted in the pcDNA V5 HIS A vector (Invitrogen), in order to fuse the COOH— terminal of the protein with a 6× histidine tag. […] Presence of a single His-tagged PDGFR alpha product in eluted fractions was evaluated by immunoblotting with specific anti-PDGFR alpha (R&D Biosystems) and anti-histidine (Sigma-Aldrich) monoclonal antibodies. […]
Relative quantification of target genes between samples was calculated by the 2^−ΔΔCt method using the program iQ5 (Bio-Rad). […]

[4] = tested on: normal human fibroblasts; assay: type I collagen gene transcription in normal human fibroblasts (real-time PCR); format: cell-based
Excerpt: FIG. 5 Characterization of recombinant human monoclonal auto-antibodies (rHumaab). IgG were affinity-purified from serum-free supernatants of CHO cells stably transfected with each of the four rHumaab constructs and used (10 micrograms/ml) in four independent assays. Each result is representative of three experiments performed under the same conditions. (a) Vk13B8, Vk16F4 and Vlambda16F4, but not Vlambda13B8 rHumaab, immunoprecipitated PDGFR alpha from normal human fibroblast extracts. A mouse monoclonal anti-PDGFR alpha antibody was used as positive control. Immunoprecipitated PDGFR alpha was visualized by immunoblotting with rabbit anti-PDGFR alpha antibody-HRP. (b-c) Vk16F4 and Vlambda16F4, but not Vk13B8 and Vlambda13B8 rHumaab, induced (b) ROS production and (c) increased ERK phosphorylation (p-ERK) in normal human fibroblasts after 15 minutes incubation. Levels of ROS and p-ERK in fibroblasts at baseline and upon 15 minutes incubation with PDGF-BB are shown. Intracellular ROS production was measured by DCFH-DA fluorescence. Total proteins extracted from fibroblasts at baseline and after stimulation with the indicated reagents were immunoblotted with a mouse monoclonal antibody specific for p-ERK. (d) Vk16F4, but not the other rHumaab, induced increase of type I collagen gene transcription in normal human fibroblasts after 1 hour incubation. Type I A1 and A2 collagen gene expression was measured by quantitative real-time PCR in RNA extracted from fibroblasts at baseline and after stimulation with the indicated reagents. […] Mouse collagen gene expression was measured by quantitative real-time PCR in RNA extracted from F alpha and F−/− fibroblasts at baseline and after 1 hour stimulation with Vk16F4 rHumaab or human PDGF-BB.
Human skin fibroblasts were cultured and used within the fifth passages. […] For collagen gene quantification, total RNA was extracted from human and mouse fibroblasts at baseline and after 1 hour stimulation with the reagents indicated above, using Aurum total RNA mini Kit (Bio-Rad), which included DNase treatment. […]

[5] = biological target: T1, PDGFR alpha; assay: immunoprecipitation and immunoblotting of PDGFR alpha from human fibroblast extracts; format: binding; parameters: 100 micrograms of total protein from human fibroblast extract; endogenous in cells; host or cells: normal human (skin) fibroblasts, total cell extract; details: normal human fibroblast extracts; 10 micrograms/ml
Experimental: Immunoprecipitating antibodies were individually incubated for 4 hours at 4° C. with an aliquot of 100 micrograms of total protein from human fibroblast extract. The reaction mixture was adjusted to a final volume of 500 microliters with assay buffer (PBS, 1% Nonidet P-40, 0.5% sodium deoxycholate, 1 mM PMSF). Rabbit anti-PDGFR alpha antibody and rabbit IgG (Santa Cruz), IgG purified from EBV-transformed B cell culture supernatants and rHumaab were used at 10 micrograms/ml, total IgG purified from serum of SSc patients and healthy subjects at 200 micrograms/ml. Then, 20 microliters agarose-Protein A/G (Santa Cruz) were added to the antibody-cell extract mixture and incubated overnight under rotation at 4° C. After centrifugation and extensive washing, immunoprecipitates were suspended in 20 microliters of loading buffer (150 mM Tris-HCl, pH 6.8/6% SDS/0.3% bromophenol blue/30% glycerol) and heated to 100° C. for 10 minutes prior to immunoblotting with a commercial rabbit anti-PDGFR alpha antibody (Santa Cruz).

[6] = tested on: normal human fibroblasts; assay: ROS production in normal human fibroblasts (DCFH-DA fluorescence); format: cell-based; details: 10 micrograms/ml, 15 minutes incubation
Excerpt: as §1

[7] = tested on: mouse fibroblasts transfected with full-length human PDGFR alpha (F alpha) or mock (F−/−); assay: mouse collagen gene expression in F alpha and F-/- fibroblasts; format: cell-based; details: F alpha and F−/− cells treated in parallel; 1 hour stimulation
Excerpt: as §1

[8] = tested on: human smooth muscle cells; assay: proliferation and migration of human smooth muscle cells; format: cell-based; details: preliminary results

T1 sequence (P16234 24-1089): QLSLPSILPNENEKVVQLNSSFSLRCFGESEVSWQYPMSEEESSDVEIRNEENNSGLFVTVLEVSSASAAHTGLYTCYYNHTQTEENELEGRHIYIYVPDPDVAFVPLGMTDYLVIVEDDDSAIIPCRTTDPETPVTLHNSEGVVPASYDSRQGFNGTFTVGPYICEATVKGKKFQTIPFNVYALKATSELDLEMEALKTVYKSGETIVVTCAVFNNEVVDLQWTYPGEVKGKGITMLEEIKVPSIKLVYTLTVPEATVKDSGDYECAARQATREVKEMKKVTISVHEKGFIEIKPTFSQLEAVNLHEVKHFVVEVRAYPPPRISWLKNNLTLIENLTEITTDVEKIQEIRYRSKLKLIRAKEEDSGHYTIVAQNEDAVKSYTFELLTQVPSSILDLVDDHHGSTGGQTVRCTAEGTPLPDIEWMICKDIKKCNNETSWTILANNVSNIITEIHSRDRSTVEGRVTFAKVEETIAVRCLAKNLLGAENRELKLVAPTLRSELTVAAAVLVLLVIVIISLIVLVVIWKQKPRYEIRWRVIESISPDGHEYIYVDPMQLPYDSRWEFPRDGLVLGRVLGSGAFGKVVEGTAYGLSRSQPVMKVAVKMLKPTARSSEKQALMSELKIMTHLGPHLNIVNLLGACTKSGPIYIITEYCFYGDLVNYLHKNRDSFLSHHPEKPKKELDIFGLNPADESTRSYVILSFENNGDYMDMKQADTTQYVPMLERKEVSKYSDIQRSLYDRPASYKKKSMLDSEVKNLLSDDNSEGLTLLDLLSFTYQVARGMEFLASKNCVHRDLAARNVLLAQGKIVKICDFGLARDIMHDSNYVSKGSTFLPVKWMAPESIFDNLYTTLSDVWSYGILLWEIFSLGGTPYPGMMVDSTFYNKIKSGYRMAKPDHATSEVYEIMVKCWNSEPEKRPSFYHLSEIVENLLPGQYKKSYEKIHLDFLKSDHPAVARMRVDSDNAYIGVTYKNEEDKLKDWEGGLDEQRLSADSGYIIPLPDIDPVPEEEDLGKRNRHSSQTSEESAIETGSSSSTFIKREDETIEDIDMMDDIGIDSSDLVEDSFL

- binding to PDGFR alpha pre-saturated with Vk13B8 rHumaab ([2]; 10 nM Vk16F4, receptor saturated with molar excess of Vk13B8): only marginally interfered
- binding to PDGFR alpha pre-saturated with PDGF-BB ([2]; immobilized His-tagged PDGFR alpha saturated with molar excess of PDGF-BB): prevented
- kdiss (dissociation rate constant) [3]: 0.02 s⁻¹
- immunoprecipitation of PDGFR alpha [5]: specifically bound
B1: Vk16F4: recombinant human monoclonal IgG1, VH PAM paired with Vk16F4 VL (SEQ ID No. 6; SEQ ID No. 12); agonistic anti-PDGFR alpha (antibody, V domains shown)
VH: GLVKPLETLSLTCSVSGGSVSDGSYFWNWIRQPPGKGLEWIGYAYSRGTTNYSPSLKGRITISVDKSKNQISLKLTSVTPADTAVYYCARDSFEIWGQGTMVTV
VL: DIQMTQSPDSLAVSLGERATINCKSSQSVLYSSDNKNYLAWYQQKPGQPPKLLLYWASTRESGVPDRFSGSGSGTDFTLTISSLQAEDVAVYYCQQYYSTPKTFGQGTKVEIK
- ERK phosphorylation (p-ERK) [1]: increased
- increase of type I collagen gene transcription ([4]; 10 micrograms/ml, 1 hour incubation): stimulating an increase
- duration of collagen gene stimulation ([4]; time course): up to 24 hours
- peak of type I collagen gene transcription ([4]; time course): 6 h
- ROS production [6]: induced
- type I collagen gene up-regulation [7]: observed only in F alpha cells
- migration of human smooth muscle cells [8]: able to stimulate
- proliferation of human smooth muscle cells [8]: able to stimulate
